Reference: the RNAGym collection of RNA variant scans (doi:10.7554/elife.90254)
The source gives no read counts; variants with many changes may rest on few reads.

B1: LINE1-mini (parent)
chain: GGCAGAGCUCAACACAGCGUGGCAAAGUGGCUGUGGCUAGACUGCC

Variants of: B1
Assay: self-cleavage, relative activity (ratio to wild type); higher = more cleavage; in vitro, sequencing; the parent is a self-cleaving ribozyme

Variant	self-cleavage
C15U U43C C46G	0.14
A16C A24C A25U G33C C42A	0.03
A16C A24C A26U G27A	0
A16C A24C G40C	0.01
A16C A25C U43C	0.08
A16C A25G C37A	0.01
A16C A25G U32G	0.1
A16C A25U C31U	0.04
A16C A25U G27A U38A	0.1
A16C A25U G29A G30U C42G	0
A16C A25U U32A G44C	0.02
A16C A26C C37A C45A	0.03
A16C A26U G27U	0.05
A16C A26U G35U C42U	0
A16C A26U U28A A41U	0.14
A16C C18A C46A	0.05
A16C C18A G33C	0
A16C C18A U20G	0.01
A16C C18U U20C A26U G29C G36U	0.09
A16C C23A G27U	1.01
A16C C23U A41C C42G	0.08
A16C C23U G36U	0.06
A16C C31U C37G C42U	0.02
A16C G17A G19A G35C	0

Variant	self-cleavage
A16C G17A G21A G33A	0.05
A16C G17A G21C U28C U38A C42U	0.01
A16C G17A G35A	0.01
A16C G17C A26G G33A U43G C46A	0.04
A16C G17C C42G	0.04
A16C G17C G35C	0.07
A16C G17C U20G U43C	0.04
A16C G17U A25G C31U G40U	0.01
A16C G17U C18A C31G	0.01
A16C G17U C18U G30U A39C	0.02
A16C G17U U32C G36U	0.05
A16C G19C C31U G33U A39U C42U	0
A16C G19C U20C A25C	0.08
A16C G19U A26C G30U	0.01
A16C G19U G29C A39C	0.02
A16C G21A A26C C45U	0.01
A16C G21A G27U G40A	0.08
A16C G21A G36U C37U	0.07
A16C G21C A25C C31U	0.03
A16C G21C C23G G35U C42G	0.01
A16C G21U C23G A39G	0.04
A16C G21U G22U A39C	0.02
A16C G21U G33U C37G	0.01
A16C G22U C31G G35A U38G	0

Variant	self-cleavage
A16C G22U G27U	0.44
A16C G27A C42U	0.09
A16C G27C C37U	0.24
A16C G30C C31U G33A G36U C46U	0.01
A16C G30C C42G	0.05
A16C G33U G40C U43C	0.01
A16C G35A C42U	0.08
A16C G36A U43A	0
A16C G40U A41U C42A	0.01
A16C G44A C45U	0.03
A16C U20A G27C	0.15
A16C U20G U38G	0
A16C U34A G36C	0.04
A16C U34G G35A G40U	0.01
A16G A24G U43C	0.02
A16G A25C G30A G33A A39U G40A	0.01
A16G A25G C42U	0.08
A16G A25G G36U	0.03
A16G A25U G29A	0.07
A16G A26G G29A C46G	0.99
A16G A26U C45A	0.11
A16G A26U U34A A41C	0.03
A16G A26U U38C	0.1
A16G C18A A26G	0.11

Variant	self-cleavage
A16G C18A U20C C31U	0.02
A16G C18G A24U	0.04
A16G C18G C37A A39U	0.07
A16G C18U A25C G30C C31U	0.02
A16G C18U C31A C42U C45A	0
A16G C18U C37G	1.24
A16G C18U G21C G27U	0.75
A16G C18U G21U C23U	0.07
A16G C18U G22A G33U	0.03
A16G C18U G29U	1.56
A16G C18U G30C G35A	0.02
A16G C31A G33C C42A	0.01
A16G C31G G44U	0.03
A16G C31U C37A	0.03
A16G C31U G33A G36U C46U	0.02
A16G C37G A39C	0
A16G G17A G33A U38A	0
A16G G17C A26G	0.11
A16G G17C C18U G27U	0.09
A16G G17C G29A	0.03
A16G G17C U32A	0.24
A16G G17U C31A C37G	0.02
A16G G19A U32A G35A G36A	0.02
A16G G19C A26G G35U	0.04

Variant	self-cleavage
A16G G19C A26U	0.2
A16G G19U G29U G36C U43G	0
A16G G21A A41G	0.17
A16G G21C A24U C31U C42A C46A	0
A16G G21C C31A G33A	0
A16G G21C U34G C45U C46G	0
A16G G22U G27C U28C C37G G40U	0.01
A16G G27U U43A	0.1
A16G G29A G36C	0.19
A16G G29A G40U	0.01
A16G G29A U38A	0.47
A16G G29C C31U	0.02
A16G G29C C42U G44U	0.03
A16G G29C G30C U43A	0.01
A16G G29U G33U	0.03
A16G G29U G40C	0.07
A16G G30A G35C	0
A16G G30A U43C C46A	0.03
A16G G30C C31U	1.11
A16G G30U A39U	0.09
A16G G33A C46U	0.06
A16G G33A G44U	0.03
A16G G33C C37A C46G	0.01
A16G G33C G44C	0.03

Variant	self-cleavage
A16G G33U G35U	0
A16G G35A G36A	0.03
A16G G35A G36A G40A A41U	0.22
A16G G35C C37U	0.04
A16G G35U G40C	0.04
A16G G36C G40A	0.1
A16G G36U C37A G44U	0.01
A16G G40A C45U	0.01
A16G U28C G30A C45A	0.39
A16G U32G A39U	0.05
A16G U32G G33C	0.02
A16G U32G U38C	0.03
A16G U34C C42G	0.39
A16G U38A C42G	0.04
A16G U38A G44U	0.25
A16G U43C C45U	0.02
A16U A24C C31G C37A A41C U43A	0.01
A16U A24G G30A U34G C46U	0.08
A16U A24G U43G G44A	0.03
A16U A25C G36C A41U	0.03
A16U A25G C45U	0.08
A16U A25U G36A C45U	0.05
A16U A26C G29C	1.76
A16U A26C G33C G35A	0.01

Variant	self-cleavage
A16U C18G G19U G21A C37A	0.06
A16U C18G G29A C37G A41G	0.06
A16U C18G G35C U38A U43G	0.22
A16U C18G G40U	0.08
A16U C18U A39C	0.06
A16U C18U G27U U28A	0.09
A16U C18U G35U	0.07
A16U C23A G27C A39G G40A	0.06
A16U C23G A25G G30C	0.23
A16U C23G A41U	0.11
A16U C23U A26U U32A	0.44
A16U C23U U32G G35U G36A G40C C42A	0.11
A16U C31A U32C	0.05
A16U C31U G35U G36C G44A	0.02
A16U C31U G36A C46U	0.03
A16U C31U G40A	0
A16U C31U G44U	0.02
A16U C37U U38A	0.07
A16U C45U C46G	0
A16U G17A A24G A26C	0.01
A16U G17A U38A G44U	0.01
A16U G17A U43C	0.03
A16U G17C C18U C46G	0.03
